44 sequences from the supplement of paper PMC11417369 can be followed below.

The other results are listed elsewhere or left out.

This experiment has as its system PfHDP1 homeodomain (GST-tagged). Nature of the experiment: gcPBM binding intensity (ln(normalized median fluorescence intensity)); higher = stronger DNA binding. In short, it runs like this:
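In this array assay, P. falciparum DNA-binding domains with a GST tag, expressed in E. coli, were applied for 1 h to primer-extended double-stranded 36-bp intergenic genomic probes and negative controls on an Agilent 4 × 180k array. Bound protein was visualised with Alexa488 anti-GST antibody at 488 nm. Binding intensity is the highest Masliner-normalised natural-log median intensity across replicate spots of either probe orientation.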
Consider “AATAATTGAAAAACACAAAAATGATTTTCCATAAAT [CACACA_negctrl_site1555]”, for which the “gcPBM binding intensity (ln)” value came out at 5.77. Under “GTAAAAAAATAGCACACACACAAAAACACGCACAAA [CACACA_site6723]” stands 8.31. Under “GGGACAGGACGAAAAAATAAATAAATAAATAAAAAA [CACACA_negctrl_site155]” stands 6.46; under “ACAAGATCTAGATACACACACATATCTCTCAATCTA [CACACA_site6453]”, 7.07; under “AATAAATAAATATATACACACATATCTGTCTACATA [CACACA_site5708]”, 6.5.

Consider “CTTGTCATTGGGCACACACACATGTATAGGTTATTA [CACACA_site3058]”, for which the “gcPBM binding intensity (ln)” value was found to be 6.49. Under “TGAACACCCACAAATACACACAAAAAAAATAAATAA [CACACA_site248]” stands 6.85. Next, “ATTTTTTTTCATATAACACACACACTAATATAATGT [CACACA_site9226]”: 7.05; “GAGTAAACATATATATGTACATAAAGTTAACATTGC [XGTACX_site2225]”: 6.99; “TTTTTATTTATATATATATATATATATTATATATAA [CACACA_negctrl_site1654]”: 6.7.

Regarding “ATCTAAATAATATATATATATAATATTAATAATATA [CACACA_negctrl_site1620]”, the “gcPBM binding intensity (ln)” value amounted to 6.36.

Turning to “ATATATTATATAATATGTACATAATAAAATTTAAAT [XGTACX_site1900]”, the “gcPBM binding intensity (ln)” value was 6.79. Next, “AATCAAAAATCAAACGCATGTAGTATAATAGATAAG [TGCATGCA_site753]”: 6.71. Next, “CAAATATAAATATATACATGCATCTATCTATATAAA [TGCATGCA_site369]”: 6.12. Take “AAATTGTAGCACCAAGCATGCTAAAAGGACATATGA [TGCATGCA_site717]”: the “gcPBM binding intensity (ln)” value is 6.45. Take “AAATAAATACACATATGTACATATTTTATTTTATTT [XGTACX_site2357]”: the “gcPBM binding intensity (ln)” value turned out to be 6.83. Under “TAAAAAAAATACAAAAGTACACAAAATTATACGTTA [XGTACX_site4656]” stands 6.16; under “AATGGTATAATCAATACACACATAATATATATATTG [CACACA_site1658]”, 6.35. Under “TTAAGATATGTATATCGTACATGACATTAAAAATTT [XGTACX_site3352]” stands 6.02; under “ATTGGGTACAAATACACACACATATATATATTAATA [CACACA_site2376]”, 6.8. Consider “TGTACCTTATTAATATATTTAACTCGCCTTATATAC [XGTACX_negctrl_site289]”, for which the “gcPBM binding intensity (ln)” value turned out to be 7. With “TCGTAAACATATTGAAAAATATAAAAAGGGGTAATA [CACACA_negctrl_site619]”, the “gcPBM binding intensity (ln)” value stood at 6.46. Under “TTGTTAAAAGTATCCATTCTTTATTACTTTTGTTTA [XGTACX_negctrl_site532]” stands 6.36; under “TATTTATTGTGATACTTTTATTGTTTAATGATTAAA [CACACA_negctrl_site495]”, 6.29; under “AAAAAAAAAAAAAGGTGTACAAGTATAATTACATAA [XGTACX_site534]”, 6.31. As for “TAGTATAAAATTATGTGTACACAAATATAACTTTTC [XGTACX_site5971]”, the “gcPBM binding intensity (ln)” value was 6.86. On to “AAAAAAAAAAATATCACACACACATAAATATAAACC [CACACA_site2278]”, for which the “gcPBM binding intensity (ln)” value is 6.94. Next, “AAATTATATCAATGTTGTACATATTATTTTTTTCTC [XGTACX_site5948]”: 6.28. Under “AATTTCCTTTTTTAAAGTACACAAAAGTTCACTTTG [XGTACX_site4460]” stands 6.39; under “AAATTATATCATTTATTTTTTTATATTTTTTATATT [CACACA_negctrl_site685]”, 6.03; under “TATAATTTATTAAGGGGTACATATATTTCATGATAA [XGTACX_site5141]”, 6.85. Turning to “AAGATTAAAAATTGCACACAAAAATATATTTTCTAT [CACACA_site1305]”, the “gcPBM binding intensity (ln)” value was found to be 9.78. Next, “TCACATCTTATATACTGTACATTTCGAATATAAATT [XGTACX_site2508]”: 6.6; “TTTCTTTTACATATTTGTACATATATAAATTTATAT [XGTACX_site1787]”: 7.27; “TCTAACAACATGCGCACACACATGAATATTCATATT [CACACA_site1540]”: 8.26. Next, “ATTAGATATGTAAACTAAAATTATATTCATGATAAT [TGCATGCA_negctrl_site182]”: 6.1.

For “ATATTTTTATTTTCTTTACACACCACATAATTTTTT [CACACA_site4060]”, the “gcPBM binding intensity (ln)” value worked out at 7.05. Next, “AAAAAAAAAAAAATATGTACTTATTTTTATGTTAAA [XGTACX_site8802]”: 6.2; “TTCTTTAATACTTATTGTACAATATAATAATCACAA [XGTACX_site6364]”: 7.07; “TACTATATAAGTAAGGCATGCATGCCGATTTTTTTA [TGCATGCA_site100]”: 5.92. Next, “TGAAACCGTTACATGTGTACATATGTTACACATAAT [XGTACX_site7250]”: 6.61. Regarding “TACTTAAAATATTTAACAAATAAATAAATAAATAAA [XGTACX_negctrl_site523]”, the “gcPBM binding intensity (ln)” value was 6.19.

Turning to “TAATTTAAACAAAAAAGTACAAATTTCTTTTTATTA [XGTACX_site5244]”, the “gcPBM binding intensity (ln)” value amounted to 5.55. Next, “TTTTAAAAAAAATATAAAAAAAGAGGAGGGATGGTA [GTGCAC_negctrl_site35]”: 6.61.
